Laboratory results published in PubChem BioAssay (NCATS).
The shares of active, inactive and inconclusive entries below differ from those in the screen. For some of these results: No potency is given beside an inconclusive call; the fits are too rough. For some of these results: “Side channel” marks fits to a control or component signal instead of the main read-out. Calls of active or inactive are those of the source. Unless noted, calls follow the shape of the dose curve; as a rule, active = well fitted curve in the direction sought with a large enough effect; inconclusive = small, poorly fitted or top-dose-only effect, or another doubt; inactive = no such curve, though single readings can be large; an effect the other way counts as inactive or inconclusive.

Key:
[1] = Quantitative high throughput screen for delayed death inhibitors of the malarial parasite plastid, 48 hour incubation (AID 488752); also: nearly all actives have a fitted effect of over 65% in size; also: potency is read from the fitted curve at half-maximal effect; as to activity change, negative = inhibition: % is scaled to controls: 0 for no effect and ±100 for the full control effect
How it was run: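 Erythrocytes infected with P. falciparum carrying an integrated firefly luciferase reporter (2% hematocrit, 0.1% parasitemia final) were exposed to compounds in RPMI 1640/0.5% Albumax for 48 h at 37 C, 5% CO2. Growth inhibition was scored as reduced luminescence.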

[2] = target: Tyrosine-protein phosphatase non-receptor type substrate 1 (Homo sapiens) + Leukocyte surface antigen CD47 (Homo sapiens) (UniProt P78324+Q08722); assay: CD47-SIRPalpha protein protein interaction - HTRF assay qHTS validation (AID 1347058; active = well fitted curve in the direction sought with a large enough effect in the signal ratio, not every such curve was filed as active; inconclusive = small, poorly fitted or top-dose-only effect, or effect the other way, or a change in a side signal; inactive = no such curve, though single readings can be large or run the other way; the % refers to the signal ratio; also: potency is read from the fitted curve at half-maximal effect)
How it was run: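 TR-FRET read (Ch1/Ch2 ratio) of soluble extracellular CD47 and Avi-biotinylated SIRPalpha domains in PBS pH 7.4 with 0.05% IGEPAL; 7-point compound titration. Sequential 30 min room-temperature steps; non-biotinylated SIRPalpha as control inhibitor.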

[3] = qHTS of pediatric cancer cell lines to identify multiple opportunities for drug repurposing: Confirmatory screen for A673 cells (AID 1347110);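 also: cells exposed to compound for 48 h before the viability read; nearly all actives have a fitted effect of over 65% in size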; also: potency is read from the fitted curve at half-maximal effect
How it was run: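 Viability was read as ATP luminescence (CellTiter-Glo) after 48 h of compound exposure at 37 C in A673 cells seeded at 500-1,000/well. Titrations reached 46 uM final, with 11 points in the confirmatory screen. Concentration-response curves were fitted directly.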

[4] = Quantitative High-Throughput drug screen in 47 multiple myeloma cell lines against the NCATS MIPE library collection: AMO1_DSMZ cell viability assay (AID 1918927; also: nearly all actives have a fitted effect of over 30% in size; also: potency is read from the fitted curve at half-maximal effect); settings: AMO1 myeloma cells viability, CellTiter-Glo ATP luminescence, 48 h; viability, % of DMSO: at 45.8 µM (top of the series)
How it was run: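 Viability readout: CellTiter-Glo luminescence following 5 min room-temperature incubation with reagent. Prior exposure: 48 h, 37C, humidified 5% CO2, 500 cells per well.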

[5] = system: CP192; assay: qHTS profiling for inhibitors of Plasmodium falciparum proliferation (AID 504749); also: nearly all actives have a fitted effect of over 60% in size; also: potency is read from the fitted curve at half-maximal effect; settings: P. falciparum in erythrocytes, SYBR Green DNA, 72 h; series mostly up to 28.7 µM
How it was run: (§1)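 Readout was DNA-dye fluorescence from lysed cultures, ex 485/em 535 nm. Parasitized red cells had grown 72 h with compound; data scaled between 0.29 uM artemisinin and DMSO wells and corrected using vehicle-only plates.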

[6] = Quantitative High-Throughput drug screen in 47 multiple myeloma cell lines against the NCATS MIPE library collection: KMS28PE_JCRB cell viability assay (AID 1918983); also: potency is read from the fitted curve at half-maximal effect; nearly all actives have a fitted effect of over 35% in size
How it was run: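 Viability after 48 h drug exposure was measured as ATP-dependent luminescence. Cells, 500 per well, sat at 37 °C under 5% CO2; DMSO wells set 100%, media-only wells 0%.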

[7] = qHTS of pediatric cancer cell lines to identify multiple opportunities for drug repurposing: Confirmatory screen for NB1643 cells (AID 1347109); also: potency is read from the fitted curve at half-maximal effect; nearly all actives have a fitted effect of over 45% in size
How it was run: (§2)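 Viability after 48 h compound treatment at 37C, 500-1,000 cells/well, read as ATP luminescence with CellTiter-Glo. Primary screens used 11-point (MIPE, 0.78 nM-46 µM) or 8-point (NPC, 0.59 nM-46 µM) final concentrations; follow-up screens used 11-point dilutions.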

[8] = qHTS of pediatric cancer cell lines to identify multiple opportunities for drug repurposing: Confirmatory screen for NB-EBc1 cells (AID 1347115);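 also: potency is read from the fitted curve at half-maximal effect; cells exposed to compound for 48 h before the viability read; nearly all actives have a fitted effect of over 45% in size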
How it was run: as §2

[9] = qHTS of pediatric cancer cell lines to identify multiple opportunities for drug repurposing: Confirmatory screen for TC32 cells (AID 1347118);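 also: potency is read from the fitted curve at half-maximal effect; cells exposed to compound for 48 h before the read; nearly all actives have a fitted effect of over 65% in size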
How it was run: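 Measured quantity: luminescence from CellTiter-Glo, reflecting metabolically active TC32 cells following 48 h of compound. Curves came straight from multi-point titrations, with 8 or 11 points in primary and 11 in confirmatory screening.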

[10] = qHTS of pediatric cancer cell lines to identify multiple opportunities for drug repurposing: Confirmatory screen for Rh18 cells (AID 1347125); also: potency is read from the fitted curve at half-maximal effect; nearly all actives have a fitted effect of over 55% in size
How it was run: as §2

[11] = qHTS assay to identify small molecules that stimulate interleukin-8 (IL-8) secretion (AID 651758; active = well fitted activation curve with a large enough effect in the signal ratio; inconclusive = small, poorly fitted or top-dose-only effect, or effect the other way, or a change in a side signal; the % refers to the signal ratio; also: potency is read from the fitted curve at half-maximal effect; as to activation: 0% is about no effect); settings: HTRF ratio (665/615); activation: at 92.2 µM (top of the series)
How it was run: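 THP-1 cells (2000/well) exposed to compound 16 h at 37 C; secreted IL-8 then detected by HTRF with cryptate- and XL665-labelled anti-IL-8 antibody pair after 1-3 h at room temperature.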

[12] = Cytometry Cell-Based qHTS for Inhibitors of the mTORC1 Signaling Pathway in MEF cells (AID 2668); also: potency is read from the fitted curve at half-maximal effect;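 as to activity change, negative = inhibition: Tsc2-/- p53-/- mouse embryonic fibroblasts stably re-expressing wild-type Tsc2; percent cells positive for phospho-rpS6 Ser235/236 relative to propidium iodide stain; plate controls were DMSO wells for no effect and 7.5 nM rapamycin control wells for full effect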
How it was run: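 Phospho-rpS6 (Ser235/236) immunofluorescence over PI signal, scored as % positive cells using thresholds from 7.5 nM rapamycin and DMSO wells, after 24 h compound exposure of WT-Tsc2-rescued Tsc2-/-, p53-/- MEFs. PI cell count recorded for viability.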

[13] = Validation screen for small molecules that induce DNA re-replication in SW480 colon adenocarcinoma cells (AID 504364); also: potency is read from the fitted curve at half-maximal effect
How it was run: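 SW480 cells seeded at 250 per well were exposed to compound or DMSO for 48 hr at 37 C, 5% CO2, then stained with Hoechst for 40 min. DNA content per nucleus was imaged (405 nm ex, 500-530 nm em).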

[14] = Counterscreen qHTS for small molecule stabilizers of the endoplasmic reticulum resident proteome: GLuc-NoTag assay (AID 1508627); also: potency is read from the fitted curve at half-maximal effect
How it was run: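 SH-SY5Y cells stably expressing constitutively secreted GLuc without SERCaMP tag, exposed to compound for 19 hr, then to 100 nM thapsigargin for 4 hr at 37C. Medium luciferase was read by coelenterazine luminescence without lysis.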

[15] = target: 3',5'-cyclic-AMP phosphodiesterase 4B (Homo sapiens) (UniProt Q07343); assay: qHTS Assay for Inhibitors of PDE-IV (AID 607; active = well fitted activation curve with a large enough effect in the main read-out, with a control signal flat, not every such curve was filed as active; inconclusive = small, poorly fitted or top-dose-only effect, or effect the other way, or a change in a side signal; also: potency is read from the fitted curve at half-maximal effect); settings: HEK293 ACTOne CNG channel cells, membrane potential fluorescence; activation (PDE inhibition): at 22.9 µM (top of the series)
How it was run: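 Live HEK293 cells with a modified cyclic nucleotide-gated (CNG) channel report intracellular cAMP via membrane-potential dye fluorescence (ex 535/em 590 nm). Endogenous PDE-IV was targeted. Compounds were tested at up to 22.9 uM final; RO 20-1724 100 uM served as control.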

[16] = target: Cytochrome P450 2D6 (Homo sapiens) (UniProt P10635); assay: qHTS Assay for Inhibitors and Substrates of Cytochrome P450 2D6 (AID 891);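 also: luciferin methyl ether substrate demethylated by CYP2D6 with NADPH regeneration; nearly all actives have a fitted effect of over 60% in size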; also: potency is read from the fitted curve at half-maximal effect; as to activity change, negative = inhibition: top concentration of the series differs between compounds; % is scaled to controls: 0 for no effect and ±100 for the full control effect
How it was run: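 Human CYP2D6 (5 nM) with 30 uM Luciferin-ME EGE (at Km) in 100 mM KPO4, compound preincubated 10 min, then NADPH regeneration system for 60 min at room temperature. Luciferin read by luminescence; normalized to 1.43 uM quinidine.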

[17] = Nrf2 qHTS screen for inhibitors: Validation (AID 493153; active = well fitted inhibition curve with a large enough effect in the main read-out, with a control signal flat, not every such curve was filed as active; inconclusive = small, poorly fitted or top-dose-only effect, or effect the other way, or a change in a side signal; inactive = no such curve, though single readings can be large or run the other way; also: potency is read from the fitted curve at half-maximal effect; as to activity change, negative = inhibition: % of control where 0% means no effect)
How it was run: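 A549 cells carrying an ARE-driven firefly luciferase reporter, in 5% FBS OPTI-MEM, were treated with compounds in concentration-response for 18-24 h at 37°C. Viability was read by CellTiter-Fluor fluorescence, then Nrf2 activity by luciferase luminescence.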

[18] = Validation of Assay for Modulators of Lamin A Splicing (AID 1459; active = well fitted curve in the direction sought with a large enough effect in the signal ratio; inconclusive = small, poorly fitted or top-dose-only effect, or effect the other way, or a change in a side signal; inactive = no such curve, though single readings can be large or run the other way; the % refers to the signal ratio;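 also: cells exposed to compound for two days before reading; 0% is about no effect; ratio rise marks activators and ratio drop marks inhibitors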); settings: Lamin A splicing dual RFP/GFP fluorescence reporter; Potency: ratio unless noted; ratio change, both ways: at 9.22 µM unless noted
How it was run: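 Splicing correction read as GFP (500-530 nm) over DsRed2 (575-640 nm) object intensity after 48 h compound exposure of reporter HeLa S3 clones (600 cells/well, 2% FBS medium); ancitabine and cycloheximide titrations, 0.5% DMSO as vehicle.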

[19] = system: FAB9; assay: qHTS profiling for inhibitors of Plasmodium falciparum proliferation (AID 504749); also: nearly all actives have a fitted effect of over 60% in size; also: potency is read from the fitted curve at half-maximal effect; settings: P. falciparum in erythrocytes, SYBR Green DNA, 72 h; series mostly up to 28.7 µM
How it was run: as §1

[20] = target: M-phase phosphoprotein 8 (Homo sapiens) (UniProt Q99549); assay: qHTS Validation Assay for Inhibitors for MPP8 Chromodomain Interactions with Methylated Histone Tails (AID 488949); settings: AlphaScreen MPP8 binding to H3K9me3 peptide; activity change, negative = inhibition: at 57.1 µM (top of the series) unless noted; also: nearly all actives have a fitted effect of over 55% in size; also: potency is read from the fitted curve at half-maximal effect;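 as to activity change, negative = inhibition: AlphaScreen signal from MPP8 chromodomain bound to biotinylated H3K9me3 peptide; top concentration of the series differs between compounds; % is scaled to controls: 0 for no effect and ±100 for the full control effect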
How it was run: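 AlphaScreen proximity signal from streptavidin donor and Ni-chelate acceptor beads (10 ug/mL each) reported binding of MPP8 to trimethyl-K9 H3(1-18) peptide, both at 50 nM. The complex formed 30 min before a 30 min compound exposure at room temperature, in PBS pH 7.4.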
Tags tell the direction and shape of the fitted curve.

Sequence of UniProt Q99549 (Q99549 whole entry, looked up): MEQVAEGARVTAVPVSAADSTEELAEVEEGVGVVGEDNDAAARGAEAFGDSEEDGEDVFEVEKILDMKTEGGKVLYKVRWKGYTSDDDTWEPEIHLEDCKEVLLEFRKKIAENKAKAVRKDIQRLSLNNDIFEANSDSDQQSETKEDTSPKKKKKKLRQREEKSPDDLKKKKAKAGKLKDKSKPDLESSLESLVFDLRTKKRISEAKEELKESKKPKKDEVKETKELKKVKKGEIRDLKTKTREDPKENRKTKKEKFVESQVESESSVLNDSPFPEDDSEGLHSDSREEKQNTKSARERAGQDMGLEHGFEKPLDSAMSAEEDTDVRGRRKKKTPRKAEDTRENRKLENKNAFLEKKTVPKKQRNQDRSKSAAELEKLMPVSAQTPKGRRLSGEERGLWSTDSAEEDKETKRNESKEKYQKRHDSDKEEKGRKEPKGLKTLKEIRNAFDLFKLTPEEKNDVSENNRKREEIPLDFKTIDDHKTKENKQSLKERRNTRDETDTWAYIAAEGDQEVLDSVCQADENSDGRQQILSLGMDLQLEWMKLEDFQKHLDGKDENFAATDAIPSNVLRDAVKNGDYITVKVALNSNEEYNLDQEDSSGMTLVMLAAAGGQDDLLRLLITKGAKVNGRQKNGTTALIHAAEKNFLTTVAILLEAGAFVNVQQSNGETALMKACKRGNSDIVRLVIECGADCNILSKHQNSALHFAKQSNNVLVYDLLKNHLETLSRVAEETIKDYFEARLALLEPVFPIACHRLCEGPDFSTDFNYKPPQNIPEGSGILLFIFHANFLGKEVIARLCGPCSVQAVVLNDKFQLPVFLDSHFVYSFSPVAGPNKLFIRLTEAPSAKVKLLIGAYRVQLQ
Sequence of UniProt Q07343 (Q07343 whole entry, looked up): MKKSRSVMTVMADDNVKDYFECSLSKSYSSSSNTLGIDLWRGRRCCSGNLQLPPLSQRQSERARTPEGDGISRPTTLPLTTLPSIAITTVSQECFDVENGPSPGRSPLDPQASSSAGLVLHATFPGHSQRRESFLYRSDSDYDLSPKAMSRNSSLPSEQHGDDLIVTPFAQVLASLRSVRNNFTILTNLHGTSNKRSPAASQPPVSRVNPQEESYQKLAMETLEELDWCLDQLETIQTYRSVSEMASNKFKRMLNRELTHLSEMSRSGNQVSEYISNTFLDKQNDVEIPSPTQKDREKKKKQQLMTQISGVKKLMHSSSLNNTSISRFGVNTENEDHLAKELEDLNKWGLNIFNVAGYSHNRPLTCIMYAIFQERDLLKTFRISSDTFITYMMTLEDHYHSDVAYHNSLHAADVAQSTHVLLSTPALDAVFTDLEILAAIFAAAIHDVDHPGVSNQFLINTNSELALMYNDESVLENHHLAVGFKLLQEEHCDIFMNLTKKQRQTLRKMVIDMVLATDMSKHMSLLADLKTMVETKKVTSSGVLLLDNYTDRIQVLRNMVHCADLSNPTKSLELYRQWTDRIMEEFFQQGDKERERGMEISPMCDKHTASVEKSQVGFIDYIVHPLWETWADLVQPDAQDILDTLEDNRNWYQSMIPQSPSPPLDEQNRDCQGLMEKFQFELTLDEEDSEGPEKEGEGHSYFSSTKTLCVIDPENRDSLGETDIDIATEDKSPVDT
Sequence of UniProt P78324 (P78324 whole entry, looked up, the tested form may be a part): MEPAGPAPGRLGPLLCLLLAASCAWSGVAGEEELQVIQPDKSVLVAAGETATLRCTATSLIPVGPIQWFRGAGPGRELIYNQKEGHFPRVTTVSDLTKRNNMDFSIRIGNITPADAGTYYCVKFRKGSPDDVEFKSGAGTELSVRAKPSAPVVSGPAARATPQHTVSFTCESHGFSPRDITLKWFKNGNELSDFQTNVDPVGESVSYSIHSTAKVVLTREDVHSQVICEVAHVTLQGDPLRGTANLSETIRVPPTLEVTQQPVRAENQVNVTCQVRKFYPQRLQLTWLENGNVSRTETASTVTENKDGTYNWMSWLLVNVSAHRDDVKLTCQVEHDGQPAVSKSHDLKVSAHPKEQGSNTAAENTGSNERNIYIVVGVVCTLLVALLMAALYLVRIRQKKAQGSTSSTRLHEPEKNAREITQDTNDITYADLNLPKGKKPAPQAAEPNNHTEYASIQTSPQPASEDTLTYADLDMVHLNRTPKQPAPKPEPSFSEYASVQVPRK
Sequence of UniProt P78324 (Q08722 whole entry, looked up, the tested form may be a part): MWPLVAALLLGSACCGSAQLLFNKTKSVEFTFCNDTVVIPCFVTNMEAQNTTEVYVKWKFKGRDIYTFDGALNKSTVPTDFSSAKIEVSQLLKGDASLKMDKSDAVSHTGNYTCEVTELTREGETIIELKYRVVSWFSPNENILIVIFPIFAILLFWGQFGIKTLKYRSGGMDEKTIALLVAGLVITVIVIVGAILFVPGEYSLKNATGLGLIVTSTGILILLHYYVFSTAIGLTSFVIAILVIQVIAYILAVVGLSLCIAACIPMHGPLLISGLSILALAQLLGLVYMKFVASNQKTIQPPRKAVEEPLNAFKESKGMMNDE
Sequence of UniProt P10635 (P10635 whole entry, looked up): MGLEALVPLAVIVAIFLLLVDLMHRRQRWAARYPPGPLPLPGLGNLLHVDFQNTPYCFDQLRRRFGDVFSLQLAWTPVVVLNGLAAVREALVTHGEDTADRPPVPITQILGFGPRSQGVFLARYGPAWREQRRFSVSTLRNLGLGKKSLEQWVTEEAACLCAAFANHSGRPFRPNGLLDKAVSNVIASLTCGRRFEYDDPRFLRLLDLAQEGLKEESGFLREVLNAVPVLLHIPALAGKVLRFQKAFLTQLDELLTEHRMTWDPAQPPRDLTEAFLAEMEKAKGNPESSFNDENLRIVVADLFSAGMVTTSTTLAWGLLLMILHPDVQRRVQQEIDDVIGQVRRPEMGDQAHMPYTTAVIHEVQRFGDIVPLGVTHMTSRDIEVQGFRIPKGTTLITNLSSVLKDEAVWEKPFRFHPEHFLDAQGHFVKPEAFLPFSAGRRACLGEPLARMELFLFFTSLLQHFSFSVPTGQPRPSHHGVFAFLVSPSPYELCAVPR

**Q.** Which Potency [1] does the source give for `CN1CCN(CC(=O)N2c3ccccc3C(=O)Nc3cccnc32)CC1` here?
**A.** inactive

**Q.** What about the Potency [2] of the same molecule?
**A.** inconclusive [side channel, falling, single point]

**Q.** With `CNC(=O)CN1CCC(Oc2cc3c(Nc4cccc(Cl)c4F)ncnc3cc2OC)CC1` as the molecule, how does the Potency [3] read?
**A.** inactive

**Q.** And the viability, % of DMSO [4]?
**A.** inconclusive: 8.96% [cytotoxic]

**Q.** Which Potency [5] does the source give for `O=C1C(=O)c2ccccc2C(O)=C1C1CCC(c2ccc(Cl)cc2)CC1` (stereo not given) here?
**A.** active: 0.0051 µM

**Q.** Which results are given for `Nc1nc(=O)n([C@H]2C[C@H](O)[C@@H](CO)O2)cc1F`?
**A.** Potency [4]: inconclusive [cytotoxic, full curve]; Potency [6]: inconclusive [rising, full curve]

**Q.** Which results are given for `CO[C@@H]1[C@H](N(C)C(=O)c2ccccc2)C[C@H]2O[C@]1(C)n1c3ccccc3c3c4c(c5c6ccccc6n2c5c31)C(=O)NC4`?
**A.** Potency [7]: active: 3.29 µM; Potency [8]: inconclusive [cytotoxic, partial curve, poor fit]; Potency [9]: inconclusive [cytotoxic, full curve, poor fit]; Potency [10]: active: 4.14 µM

**Q.** Which Potency [11] does the source give for `Cc1c(N(C)C)c(=O)n(-c2ccccc2)n1C` here?
**A.** inconclusive [activator, single point]

**Q.** Which Potency [12] does the source give for `CN(C)CCCN1c2ccccc2Sc2ccc(C(F)(F)F)cc21` here?
**A.** inconclusive [falling, single point]

**Q.** And the Potency [13]?
**A.** inconclusive [activator, single point]

**Q.** And the Potency [7]?
**A.** inconclusive [cytotoxic, single point]

**Q.** And the Potency [3]?
**A.** inconclusive [cytotoxic, single point]

**Q.** And the Potency [8]?
**A.** inconclusive [cytotoxic, single point]

**Q.** What about the Potency [9] of the same molecule?
**A.** inconclusive [cytotoxic, single point]

**Q.** And the Potency [10]?
**A.** inconclusive [cytotoxic, partial curve, poor fit]

**Q.** Which Potency [14] does the source give for `CN1CCC(=C2c3ccccc3CCc3cccnc32)CC1` here?
**A.** inconclusive [inhibitor, full curve]

**Q.** For `CCN(CC)CCOC(=O)C(c1ccccc1)c1ccccc1`, which Potency [15] is on record?
**A.** inconclusive [activator, partial curve, poor fit]

**Q.** What about the Potency [16] of the same molecule?
**A.** active: 5.01 µM

**Q.** Which Potency [15] does the source give for `CCC1C(=O)OCC1Cc1cncn1C` (stereo not given) here?
**A.** inconclusive [inhibitor, single point]

**Q.** What about the Potency [17] of the same molecule?
**A.** inactive

**Q.** With `C#CCN(C)CCCOc1ccc(Cl)cc1Cl` as the molecule, how does the ratio change, both ways [18] read?
**A.** inactive: -5.92%

**Q.** For `C/C=C/C=N/NC(=O)c1ccncc1`, which Potency [19] is on record?
**A.** inactive

**Q.** Which results are given for `CCN(CC)CCOC(=O)C1(C2CCCCC2)CCCCC1`?
**A.** Potency [12]: inactive; Potency [20]: inconclusive [inhibitor, partial curve, poor fit]

**Q.** For `CCCCNC(=O)NS(=O)(=O)c1ccc(C)cc1`, which activation [11] is on record?
**A.** inconclusive: 6%

**Q.** With `c1ccc(-c2ccc(C(c3ccccc3)n3ccnc3)cc2)cc1` (stereo not given) as the molecule, how does the Potency [14] read?
**A.** inconclusive [inhibitor, partial curve, poor fit]

**Q.** What about the Potency [19] of the same molecule?
**A.** inconclusive [inhibitor, single point]

**Q.** Which Potency [1] does the source give for `CN(C)CCOC(=O)COc1ccc(Cl)cc1` here?
**A.** inconclusive [activator, full curve]

**Q.** Which Potency [17] does the source give for `C[C@]12CC[C@@H]3c4ccc(O)cc4CC[C@H]3[C@@H]1CCC2=O` here?
**A.** inconclusive [inhibitor, single point]

**Q.** For `CO[C@@]1(NC(=O)CSCC#N)C(=O)N2C(C(=O)O)=C(CSc3nnnn3C)CS[C@@H]21`, which Potency [20] is on record?
**A.** inactive

**Q.** For `COc1ccc([C@@H]2CNC(=O)C2)cc1OC1CCCC1`, which Potency [16] is on record?
**A.** inactive

**Q.** And the Potency [6]?
**A.** inconclusive [rising, full curve, poor fit]

**Q.** Which ratio change, both ways [18] does the source give for `CC(=O)OCC1=C(C(=O)O)N2C(=O)[C@@H](NC(=O)CSc3ccncc3)[C@H]2SC1` here?
**A.** inconclusive: -13.2%

**Q.** With `O=S(c1cc(Cl)cc(Cl)c1O)c1cc(Cl)cc(Cl)c1O` as the molecule, how does the Potency [5] read?
**A.** inconclusive [activator]

**Q.** Which Potency [13] does the source give for `CC1=C(CC(=O)O)c2cc(F)ccc2/C1=C\c1ccc(S(C)(=O)=O)cc1` here?
**A.** inactive

**Q.** And the Potency [2]?
**A.** inconclusive [rising, partial curve]
